# From the supplement of paper PMC11417369
# ± gives the standard deviation of the averaged measurements. The list shows a part of the results.
# Tested on: PfAP2-EXP AP2 domain (GST-tagged)
# Assay: gcPBM binding intensity (ln(normalized median fluorescence intensity)); higher = stronger DNA binding
# In short: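 GST-tagged P. falciparum DNA-binding domains produced in E. coli were incubated for 1 h on an Agilent 4 × 180k array of primer-extended double-stranded 36-bp intergenic genomic probes with negative controls. Binding intensity is the highest Masliner-normalised natural-log median intensity across replicate spots of either probe orientation, with bound protein detected by Alexa488 anti-GST antibody at 488 nm.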
row,Sequence,gcPBM binding intensity (ln)
1,TCCTTAAAATATGGTTGTACGTACATCCTAGGTGTT [XGTACX_site7068],8.73 ± 0.14
2,AATTTAATATTCATCTCTAAAGCTATAACAATTACT [CACACA_negctrl_site1079],8.29 ± 0.4
3,TGTATTATATATGTGTGTACATATTTTTTTTTTTTT [XGTACX_site3351],8.47 ± 0.34
4,ATATATATATATAAATGTACAGGCTTATCTCTTATT [XGTACX_site1828],10.2 ± 0.12
5,TCTGAAAATTAGAAAAGTACAAAATGGTATAGGAAA [XGTACX_site4396],8.87 ± 0.51
6,ATACAAATTTATATTTCACACATTATTATATACTTA [CACACA_site6034],8.6 ± 0.21
7,AAATTATTTCAAATGTTGCACTAAAAATAAAATTAT [GTGCAC_site9460],8.18 ± 0.18
8,CGCACACGCAGACACACACACACATATAAATAAATA [CACACA_site7101],8.46 ± 0.49
9,AAAAAAAAGAAAAAAAAAAAAAAAAAAAAAAAAAAA [CACACA_negctrl_site489],7.89 ± 0.24
10,ATATAATATTTATATGTACACACCTTAATCCTTAAA [CACACA_site3555],8.46 ± 0.28
11,ATAAACGTTTTTGAAAGTACATATCATTCATTTGAT [XGTACX_site200],8.52 ± 0.39
12,TTTTAACATATAAGTACACACATATAATCAATCATA [CACACA_site2325],8.51 ± 0.25
13,TTTGTTCATATGAAATGTACAAAAAAAAAAAAAAAA [XGTACX_site8849],8.27 ± 0.45
14,TTTTATCGTTTTTTTTTTTTTTTTTTTTTTTTTTTT [CACACA_negctrl_site1309],9.06 ± 0.092
15,CCTTATAAATACTGCACACATAAAATATATATTATC [CACACA_site2806],8.8 ± 0.28
16,ATGTAGAAGTAATGCACACATATGTATTTATATATA [CACACA_site5391],8.84 ± 0.18
17,AAAAAAATTAATATGTCAGCACATATATACATACAT [GTGCAC_negctrl_site110],8.3 ± 0.4
18,TATATATATAAAAAAGCACACATACATACATACATA [CACACA_site8196],9.01 ± 0.16
19,TGAAAGAAGCATAAATGTACACACATATTTATATAT [XGTACX_site2645],8.49 ± 0.38
20,GTGTTCTTGTTATACACACACATATATATATATATA [CACACA_site1032],9.88 ± 0.77
21,TATTTATTGTGACACTTTTATTATTTTATGATAAAA [CACACA_negctrl_site37],8.57 ± 0.34
22,GAGAAAAGGAAATAACGTACACATATGCATATCCAA [XGTACX_site5858],8.9 ± 0.59

row,Sequence,gcPBM binding intensity (ln)
1,GAGAGGTCAGTTCACAGTACCCAGAAACTCTACGAG [XGTACX_site2559],8.19 ± 0.6
2,GTAATATTTTATAGTAGTACATATTTTTATTATTTT [XGTACX_site3333],8.4 ± 0.38
3,TTGTTCTTATTTCATTTTTATATGATATTTCATTAT [CACACA_negctrl_site1619],8.76 ± 0.49
4,AATATTTATTTAATTTCACACAGGTCTTTTTTTTTT [CACACA_site5188],8.38 ± 0.39
5,GACAAACAATATGAATGTACATAAAAATATAACTAA [XGTACX_site1167],8.63 ± 0.62
6,TGAATATATAAATATGCACACTTCTATTATAAATAA [CACACA_site5796],8.34 ± 0.15
7,TAACATATAAGTGTGTGTACGTACTGCGTATAATAT [XGTACX_site8597],8.92 ± 0.34
8,TGAAGAATATTTTTCACACATATATATATATATATA [CACACA_site6080],10.2 ± 0.38
9,ATATATATATATATTGCACACACAATTATTATTATT [CACACA_site8721],10.1 ± 0.21
10,TATATATATAATTAAGCATGCTAGAAACCTTTGAAA [TGCATGCA_site489],8.88 ± 0.61
11,TACAATCTAAAATACACACGCACACCGAAAAAAAAA [CACACA_site3520],8.65 ± 0.53
12,ATATATATATATATATGTACATATTTTTGTTTGATG [XGTACX_site51],10.2 ± 0.81
13,CAGATATTCATATAAACACACATACAAATTATGTAT [CACACA_site4258],8.46 ± 0.33
14,AAATTATTTATATGTTGTACTTATCCATTTTTATAA [XGTACX_site7441],8.61 ± 0.42
15,TAATTTTTTTTATTATGTACTTAATAAATGTTAATT [XGTACX_site365],8.4 ± 0.31
16,TATATTTATAGACACACACACAAAAAAAAAAAAAAA [CACACA_site6818],8.37 ± 0.31
17,TTTTTTTTTAATTATGCATGTAAATTATATATTATA [TGCATGCA_site335],8.9 ± 0.042
18,AATAAACATATATGTACACACATATACATATATATA [CACACA_site2848],8.45 ± 0.19
19,TATTTATAATTAAATACACACATATATTATATATTT [CACACA_site616],8.19 ± 0.33
20,TATATTAATTTATATCAACACACAAAATCAATATAC [CACACA_site8518],8.71 ± 0.39
21,TATACGCATATATAAACACACAAAAAAAAAAAAAAA [CACACA_site2026],8.12 ± 0.45
22,TTAGCTACACGCTAATGTACACAAATACAAAGAAAA [XGTACX_site3993],8.68 ± 0.45

row,Sequence,gcPBM binding intensity (ln)
1,ATAAAATATTATATATATATATATATATATATATAT [CACACA_negctrl_site215],10.2 ± 0.36
2,AAGAATGTTATATTATGATGCTGTCTTTTTTTAAGA [CACACA_negctrl_site251],8.23 ± 0.41
3,TGTTAATTAAAACATCATTAATATTATTAAAAATAC [XGTACX_negctrl_site509],8.29 ± 0.3
4,TCTTTTTTTACTTTCTTTTTTTTTTTTTTTTTTTTT [XGTACX_negctrl_site610],8.73 ± 0.13
5,CCTTTATAAAAAAGTAGTACACAATGAATTTATAAT [XGTACX_site5523],8.62 ± 0.35
6,CAATACTAATTGTATACACACAAAAATATACCATAT [CACACA_site3326],8.57 ± 0.38
7,AATTGATACCTTACATGTACATAATATATATAAATA [XGTACX_site321],8.97 ± 0.47
8,GAACCATTTTTTGGTATACACACGTAATTATATAAT [CACACA_site8552],8.56 ± 0.42
9,TTTTTACATACAAATTAACACACATATAGAAAAGAG [CACACA_site8570],9.02 ± 0.34
10,TGGTAATACACATACACACACACATACACATATATA [CACACA_site7312],8.7 ± 0.42
11,AATTGAAAAATCAGCACACACACAAATACATACATA [CACACA_site3232],8.79 ± 0.54
12,GCTATATATTACAATCGTACAATATATATATATATA [XGTACX_site6730],9.93 ± 0.35
13,ATATATATATATATTACACACATGTGCAATTAAAAT [CACACA_site1778],9.87 ± 0.2
14,AATATAAGAATATATACACACATAAATACATACATA [CACACA_site4128],8.6 ± 0.31
15,TCTTGTATACGGCATGCATGTTAGCACATACGGACA [TGCATGCA_site146],9.55 ± 0.35
16,TGTTCCGAAGGTTGTACACACATAGAAATATACATA [CACACA_site3874],8.88 ± 0.53
17,TGAATTCATAGCAGTTGTACATTGCATGAAGAAACG [XGTACX_site3312],8.86 ± 0.3
18,TTTTTAAAACCTTACATACACACAAATATATATATA [CACACA_site678],9.71 ± 0.2
19,AATACTTTTTATTTAGTGCATAAGAAAATATAAATC [GTGCAC_site9875],8.7 ± 0.11
20,AAAAAAAAAAATTCGGTGCAATGTAATTAATGTAAA [GTGCAC_site9588],8.59 ± 0.34
21,TATAAAATATGTATGAGGAATAAAATTAAAAAAAAA [TGCATGCA_negctrl_site178],8.53 ± 0.4
22,TATATGTTTACTTAATGTACTTACATTTTTATAACA [XGTACX_site1100],8.51 ± 0.36

row,Sequence,gcPBM binding intensity (ln)
1,AAAATTAACCGTAACACACACACATATATATATATA [CACACA_site3964],10.1 ± 0.26
2,AAACAAAAAAACTACAGTACTTTTTTCAATTCCCCT [XGTACX_site7541],8.57 ± 0.52
3,TTATTAATTTTTATTTTTAAATCACAAAAGATATAA [CACACA_negctrl_site787],7.95 ± 0.44
4,ACATAAATAATAAAAACACACATATGTACTTATATA [CACACA_site8581],8.54 ± 0.25
5,CATATTTGTATATGCACACATAAATTTTTCCATTTC [CACACA_site3467],8.6 ± 0.27
6,AAATTTTTAAACAGCACACATAAATATAATATATAT [CACACA_site2208],8.6 ± 0.44
7,GACATTAAAATGAAATATACATATATATGTATATAT [TGCATGCA_negctrl_site601],8.31 ± 0.35
8,TTACATTTTTGAAATAGATACATACACGTGTATGTA [CACACA_negctrl_site1311],8.36 ± 0.36
9,TATAACATAAAACACACACACATACATACACAAAAA [CACACA_site1804],8.82 ± 0.55
10,AAATTTTTTTTTTAATTTTTTATTTAAAAAAAATAT [TGCATGCA_negctrl_site174],8.09 ± 0.41
11,GTTATAAATAAATATACACACATATATAAAATACAT [CACACA_site7146],8.46 ± 0.27
12,CGCTTTATTTATATATGTACATATATATATATATAC [XGTACX_site5012],8.86 ± 0.42
13,AAGGCAAACAGACACACACACATATATACCTATATA [CACACA_site7077],8.48 ± 0.63
14,GTTGCCATCATTTGGCGTACAGTCAAAACCAAATCT [XGTACX_site1398],8.69 ± 0.47
15,GTTATACACATTACATGTACAAAAGTTGCACTTCAT [XGTACX_site6023],8.91 ± 0.36
16,TTTGTTCAATTTACATGTACAGATATAATCTAACAT [XGTACX_site370],8.54 ± 0.28
17,ATTTTTATTTTATATACACACAATAATAATATAATA [CACACA_site4015],8.42 ± 0.37
18,TCTATTAAAACAAATTGTACTTATTGATAAAGAATA [XGTACX_site3645],8.35 ± 0.41
19,TCCTATTTTATATAATGTACATAAATATATTACATA [XGTACX_site2720],8.53 ± 0.35
20,AAGAGCAACCAAATAGAAAAAGGAAAATAAAAGGAA [CACACA_negctrl_site100],8.88 ± 0.5
21,TTACAAATGTAGAAAAGTACATATAATAATAATTTA [XGTACX_site3044],8.32 ± 0.42
